# The supplement of paper PMC10037445
# Over roughly 2,900 compounds, “NF-kB SEAP reporter activity, fold change vs agonist alone” has its median near 0.99; the highest 2% begin near 2.6. The list shows a part of the results.
# Legend:
# RAW-Dual [1] = experiment: NF-kB SEAP reporter activity, fold change vs agonist alone; higher = enhanced NF-kB activity
# Method in brief: (§1)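 Library stock was pin-tooled at 50 nL into 384-well plates of RAW-Dual macrophages (50,000 cells/well, DMEM), followed 1 h later by a PRR agonist, and the cells were kept at 37 °C, 5% CO2. Supernatant collected after 20 hours was read for IRF by QuantiLuc luminescence and for NF-κB by QuantiBlue absorbance at 620 nm. Reporter activity is fold change over agonist-alone wells, and a well counted as cytotoxic when its IncuCyte confluency was below 70% of agonist controls in both mask sets.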
# RAW-Dual [2] = experiment: NF-kB SEAP reporter activity, fold change vs agonist alone; cytotoxicity flag (confluency mask): cytotoxic (confluency <70% of control); higher = enhanced NF-kB activity
# Method in brief: as §1
# RAW-Dual [3] = experiment: NF-kB SEAP reporter activity, fold change vs agonist alone; cytotoxicity flag (confluency mask): not cytotoxic; higher = enhanced NF-kB activity
# Method in brief: as §1
# [4] = library stock concentration (final ~1000-fold dilution): 10 mM, cytotoxicity flag (confluency mask): not cytotoxic, agonist: Imiquimod (TLR7) […]
# [5] = library stock concentration (final ~1000-fold dilution): 10 mM, cytotoxicity flag (confluency mask): not cytotoxic, agonist: MPLA (TLR4) […]
# [6] = agonist: ODN 1826 (TLR9) 0.5 ug/mL
# [7] = agonist: Pam2CSK4 (TLR2/6) 0.1 ug/mL
# [8] = agonist: Pam3CSK4 (TLR2/1) 0.1 ug/mL
structure (smiles),measurement,setting,value
COc1cc2c(cc1OC)CN(CCc1ccc(NC(=O)c3cc(OC)c(OC)cc3NC(=O)c3cnc4ccccc4c3)cc1)CC2,NF-kB SEAP reporter activity,RAW-Dual [1]; [4],0.976
same,NF-kB SEAP reporter activity,RAW-Dual [1]; [5],1.03
CN1CCC(c2c(O)cc(O)c3c(=O)cc(-c4ccccc4Cl)oc23)C(O)C1 (configuration not stated) (library stock concentration (final ~1000-fold dilution): 10 mM),NF-kB SEAP reporter activity,RAW-Dual [2]; agonist: LPS (TLR4) 0.1 ug/mL,0.255
same,NF-kB SEAP reporter activity,RAW-Dual [2]; [6],0.179
same,NF-kB SEAP reporter activity,RAW-Dual [2]; [7],0.153
same,NF-kB SEAP reporter activity,RAW-Dual [2]; [8],0.155
CN1CCC(c2c(O)cc(O)c3c(=O)cc(-c4ccccc4Cl)oc23)C(O)C1 (configuration not stated),NF-kB SEAP reporter activity,"RAW-Dual [1]; library stock concentration (final ~1000-fold dilution): 10 mM, cytotoxicity flag (confluency mask): cytotoxic (confluency <70% of control), agonist: Imiquimod (TLR7) […]",0.203
same,NF-kB SEAP reporter activity,"RAW-Dual [1]; library stock concentration (final ~1000-fold dilution): 10 mM, cytotoxicity flag (confluency mask): cytotoxic (confluency <70% of control), agonist: MPLA (TLR4) […]",0.217
CC1CCOC2Cn3cc(C(=O)NCc4ccc(F)cc4F)c(=O)c(O)c3C(=O)N12 (configuration not stated),NF-kB SEAP reporter activity,"RAW-Dual [1]; library stock concentration (final ~1000-fold dilution): 2 mM, cytotoxicity flag (confluency mask): not cytotoxic, agonist: MPLA (TLR4) […]",0.994
same,NF-kB SEAP reporter activity,RAW-Dual [1]; [4],1.18
same,NF-kB SEAP reporter activity,RAW-Dual [1]; [5],0.999
CC1CCOC2Cn3cc(C(=O)NCc4ccc(F)cc4F)c(=O)c(O)c3C(=O)N12 (configuration not stated) (library stock concentration (final ~1000-fold dilution): 10 mM),NF-kB SEAP reporter activity,RAW-Dual [3]; agonist: LPS (TLR4) 0.1 ug/mL,0.989
same,NF-kB SEAP reporter activity,RAW-Dual [3]; [6],0.999
same,NF-kB SEAP reporter activity,RAW-Dual [3]; [7],1.09
same,NF-kB SEAP reporter activity,RAW-Dual [3]; [8],0.921
CC1CCOC2Cn3cc(C(=O)NCc4ccc(F)cc4F)c(=O)c(O)c3C(=O)N12 (configuration not stated) (library stock concentration (final ~1000-fold dilution): 2 mM),NF-kB SEAP reporter activity,RAW-Dual [3]; agonist: LPS (TLR4) 0.1 ug/mL,1.23
same,NF-kB SEAP reporter activity,RAW-Dual [3]; [6],0.967
same,NF-kB SEAP reporter activity,RAW-Dual [3]; [7],0.958
same,NF-kB SEAP reporter activity,RAW-Dual [3]; [8],0.873
CCOc1ccc(Cc2cc(C3OC(SC)C(O)C(O)C3O)ccc2Cl)cc1 (configuration not stated),NF-kB SEAP reporter activity,RAW-Dual [1]; [4],1.19
same,NF-kB SEAP reporter activity,RAW-Dual [1]; [5],1.17
CCOc1ccc(Cc2cc(C3OC(SC)C(O)C(O)C3O)ccc2Cl)cc1 (configuration not stated) (library stock concentration (final ~1000-fold dilution): 10 mM),NF-kB SEAP reporter activity,RAW-Dual [3]; agonist: LPS (TLR4) 0.1 ug/mL,1.2
same,NF-kB SEAP reporter activity,RAW-Dual [3]; [6],1.13
same,NF-kB SEAP reporter activity,RAW-Dual [3]; [7],0.862
same,NF-kB SEAP reporter activity,RAW-Dual [3]; [8],1.41
COc1cc(-c2ccc(N=Nc3ccc4c(S(=O)(=O)O)cc(S(=O)(=O)O)c(N)c4c3O)c(OC)c2)ccc1N=Nc1ccc2c(S(=O)(=O)O)cc(S(=O)(=O)O)c(N)c2c1O,NF-kB SEAP reporter activity,RAW-Dual [1]; [4],0.656
same,NF-kB SEAP reporter activity,RAW-Dual [1]; [5],1.08
COc1cc(-c2ccc(N=Nc3ccc4c(S(=O)(=O)O)cc(S(=O)(=O)O)c(N)c4c3O)c(OC)c2)ccc1N=Nc1ccc2c(S(=O)(=O)O)cc(S(=O)(=O)O)c(N)c2c1O (library stock concentration (final ~1000-fold dilution): 10 mM),NF-kB SEAP reporter activity,RAW-Dual [3]; agonist: LPS (TLR4) 0.1 ug/mL,0.969
same,NF-kB SEAP reporter activity,RAW-Dual [3]; [6],0.775
same,NF-kB SEAP reporter activity,RAW-Dual [3]; [7],1.12
same,NF-kB SEAP reporter activity,RAW-Dual [3]; [8],0.938
CCN(CC)CCCC(C)Nc1nc(C)cc(Nc2ccc3nc(C)cc(N)c3c2)n1.Cl.Cl.Cl (configuration not stated) (library stock concentration (final ~1000-fold dilution): 10 mM),NF-kB SEAP reporter activity,RAW-Dual [3]; agonist: LPS (TLR4) 0.1 ug/mL,1.11
same,NF-kB SEAP reporter activity,RAW-Dual [3]; [6],1.1
same,NF-kB SEAP reporter activity,RAW-Dual [3]; [7],1.16
same,NF-kB SEAP reporter activity,RAW-Dual [3]; [8],0.949
CCN(CC)CCCC(C)Nc1nc(C)cc(Nc2ccc3nc(C)cc(N)c3c2)n1.Cl.Cl.Cl (configuration not stated),NF-kB SEAP reporter activity,RAW-Dual [1]; [4],1
same,NF-kB SEAP reporter activity,RAW-Dual [1]; [5],1.16
